According to PubChem BioAssay AID588342 (National Center for Advancing Translational Sciences (NCATS), 2011):
Among all 360,000 compounds or so, about 25,000 (6.9%) were called active. Inconclusive means that the source gave no clear call. Such entries were picked first, then a sample of the others. Calls follow the shape of the dose curve; as a rule, active = well fitted inhibition curve with a large enough effect; inconclusive = small, poorly fitted or top-dose-only effect; inactive = flat fitted curve, though single readings scatter. A potency beside an inconclusive call is a rough fit, not a confirmed value.

Target: Luciferin 4-monooxygenase (Photinus pyralis) (UniProt P08659)
Sequence of UniProt P08659 (P08659 whole entry, looked up): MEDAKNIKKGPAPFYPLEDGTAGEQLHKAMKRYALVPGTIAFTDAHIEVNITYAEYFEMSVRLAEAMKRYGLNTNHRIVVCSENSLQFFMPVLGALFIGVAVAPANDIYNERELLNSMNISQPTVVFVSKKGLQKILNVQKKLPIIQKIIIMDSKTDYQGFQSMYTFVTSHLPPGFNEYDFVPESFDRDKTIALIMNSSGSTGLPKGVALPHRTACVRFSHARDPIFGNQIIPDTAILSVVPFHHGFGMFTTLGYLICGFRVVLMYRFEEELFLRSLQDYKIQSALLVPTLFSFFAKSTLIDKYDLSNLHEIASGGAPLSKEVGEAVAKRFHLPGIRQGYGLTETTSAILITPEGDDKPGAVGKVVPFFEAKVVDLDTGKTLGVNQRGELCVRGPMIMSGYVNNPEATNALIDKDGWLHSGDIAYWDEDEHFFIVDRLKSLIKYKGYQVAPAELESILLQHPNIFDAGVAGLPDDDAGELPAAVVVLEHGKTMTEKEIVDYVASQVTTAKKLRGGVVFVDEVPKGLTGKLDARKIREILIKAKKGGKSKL
Assay: qHTS profiling assay for firefly luciferase inhibitor/activator using purifed enzyme and Km concentrations of substrates (counterscreen for miR-21 project); also: nearly all actives have a fitted effect of over 55% in size
Settings: purified FLuc, luminescence inhibition; series mostly up to 57.5 µM
Outline: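 Purified P. pyralis luciferase (10nM final) with 10uM D-luciferin and 10uM ATP (Km levels) in 50mM Tris acetate pH 7.5, 10mM Mg acetate, 0.01% Tween-20, 0.05% BSA; qHTS 6-point titration, ~60 µM downward; luminescence read.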
Potency is read from the fitted curve at half-maximal effect; tags tell the direction and shape of the fitted curve.

SMILES	Potency
CCOC(=O)CSc1nc2ccccc2c(=O)n1-c1cccc(C)c1	inactive
COc1ccc(NC(=O)CN2CCCCC2)c([N+](=O)[O-])c1	inconclusive: 16.9 µM [inhibitor, partial curve]
COc1ccc(Cl)cc1/C=C/c1ccc2cccc(O)c2n1	active: 16.9 µM
CC1CCCN(C(=O)CSc2nnc(-c3cccs3)o2)C1 (stereo unspecified)	active: 21.3 µM
COc1ccc(NC(=O)CCc2nnc3n(Cc4ccccc4Cl)c(=O)c4ccccc4n23)cc1	inactive
Cc1ccc(N2C(=O)N(Cc3cc(=O)n4ccccc4n3)c3ccccc3S2(=O)=O)cc1Cl	inactive
COC(=O)Cc1ccc(NC(=S)NCCC(C)C)cc1	active: 16.9 µM
CC1Cc2cc(/C=C3/SC(=S)NC3=O)ccc2O1 (stereo unspecified)	active: 2.69 µM
COc1cccc(C(=O)Nc2nnc(-c3ccc(Cl)cc3)o2)c1	inconclusive: 23.9 µM [inhibitor, partial curve, poor fit]
Cc1ccc([N+](=O)[O-])cc1S(=O)(=O)N1CCn2cccc2C1c1ccccc1 (stereo unspecified)	inactive
CCOc1nc(C)ccc1-c1noc(-c2cccnc2)n1	inconclusive: 37.9 µM [inhibitor, partial curve, poor fit]
Cc1nc(NC(=O)/C=C/c2ccc(Cl)cc2Cl)sc1C(=O)N(C)C	inconclusive: 3.38 µM [inhibitor, full curve]
O=C(Nc1ccccc1)c1nccn1Cc1ccc(F)cc1	inconclusive: 19 µM [inhibitor, partial curve]
Cc1ccc(NC(=S)NCc2cccs2)cc1	inconclusive: 23.9 µM [inhibitor, partial curve]
CCc1cccc(C)c1NC(=O)CCn1c(=O)c2cccn2c2ccccc21	inconclusive: 9.53 µM [inhibitor, partial curve, poor fit]
COc1ccc(/C=C(\C#N)C(=O)Nc2cccnc2)cc1	inconclusive: 7.57 µM [inhibitor, partial curve]
COc1ccc(CSCC(=O)N/N=C/c2ccc(OCC(=O)NCc3ccco3)cc2)cc1	inconclusive: 26.9 µM [inhibitor, partial curve, poor fit]
COc1ccc(-n2cnc3cc(NC(=O)c4ccco4)ccc32)cc1	active: 13.5 µM
COc1ccc(-c2cc(C(=O)NC(C(=O)O)C(C)C)c(C)o2)cc1OC (stereo unspecified)	inconclusive: 33.8 µM [inhibitor, partial curve, poor fit]
CC1(c2ccccc2)NC(=O)N(CC(=O)Nc2ccc(C(N)=O)cc2)C1=O (stereo unspecified)	inactive
COc1ccc(-c2cc(C(=O)N3CCN(c4ccccc4O)CC3)c3ccccc3n2)cc1	active: 0.675 µM
CC(=O)NCCCNc1ccc([N+](=O)[O-])cc1	active: 19 µM
O=C(Nc1nc2ccccc2s1)c1cccc(N2C(=O)CCC2=O)c1	inactive

SMILES	Potency
OCC#CCSc1nnc(-c2ccc(Br)cc2)o1	inconclusive: 37.9 µM [inhibitor, single point]
O=C(NC1CC1)c1ccc(N2CCCCC2)c([N+](=O)[O-])c1	inconclusive: 26.9 µM [inhibitor, single point]
COc1ccc(C(=S)NCS(=O)(=O)c2ccc(C)cc2)cc1	inconclusive: 37.9 µM [inhibitor, partial curve, poor fit]
CCC(=O)Nc1ccc2oc(-c3cccnc3)nc2c1	active: 16.9 µM
Cc1ccc(-c2cc(C(=O)N(Cc3ccc(C(C)(C)C)cc3)Cc3ccco3)no2)cc1	inactive
COc1ccc(-c2ccc(-c3nnn(CC(C)=O)n3)cc2)cc1	inconclusive: 1.35 µM [inhibitor, full curve]
COc1cc(NC(=O)CCc2ccccc2)nc(OC)n1	inconclusive: 26.9 µM [inhibitor, partial curve, poor fit]
Cc1ccc(/C(O)=C2\C(=O)C(=O)N(C)C2c2ccccc2[N+](=O)[O-])cc1 (stereo unspecified)	inconclusive: 26.9 µM [inhibitor, single point]
Brc1ccccc1/C=N/Nc1ccc2ccccc2n1	active: 2.13 µM
Cc1cc(NC(=O)c2ccccc2)ncc1NC(=O)c1ccco1	active: 10.7 µM
CCOc1ccccc1CNC(=O)c1ccc2c(c1)nc1n2CCCCC1	inconclusive: 23.9 µM [inhibitor, partial curve]
Cc1ccccc1OCC(=O)Nc1cccc(N(C)S(C)(=O)=O)c1	inconclusive: 15.1 µM [inhibitor, partial curve, poor fit]
Cc1ccc(-n2nc(C)c(C(C)(O)C(F)(F)F)c2N)cc1 (stereo unspecified)	inconclusive: 33.8 µM [inhibitor, partial curve, poor fit]
Cc1ccc(/C(=N/Nc2ncnc3ccccc23)C(=O)O)cc1	inconclusive: 15.1 µM [inhibitor, partial curve]
CC(SCc1cc(=O)n2c([nH]c3ccccc32)c1C#N)C(=O)O (stereo unspecified)	inconclusive: 21.3 µM [inhibitor, partial curve, poor fit]
CCOc1ncnc2c1[nH]c1ccccc12	inconclusive: 26.9 µM [inhibitor, single point]
O=C(CSc1nnc(NC(=O)C2CC2)s1)NCc1ccc(F)cc1	inactive
CCc1nonc1NC(=O)c1oc2ccc(C)cc2c1C	inconclusive: 8.49 µM [inhibitor, partial curve, poor fit]
Cn1c(SCC(=O)N2CCOCC2)nnc1-c1ccc(NC(=O)c2ccccc2F)cc1	inconclusive: 37.9 µM [inhibitor, single point]
COc1cccc(NC(=O)n2nc(N)cc2-c2ccc(Cl)cc2)c1	inconclusive: 23.9 µM [inhibitor, single point]
O=C(Cc1ccc(O)cc1)NC1CCCCCC1	inconclusive: 19 µM [inhibitor, partial curve]
COC(=O)c1ccc(N2CCOCC2)c(F)c1	inconclusive: 26.9 µM [inhibitor, partial curve, poor fit]
C/C=C(/C)C(=O)Nc1cccc(C2=NOC3(C2)C[C@H](C(N)=O)N(C(=O)COc2ccc(Cl)cc2)C3)c1 (stereo partly specified)	inactive
